Data taken from PubChem BioAssay AID1461 (National Center for Advancing Translational Sciences (NCATS), 2008).
The whole screen tested about 220,000 compounds, of which about 2,300 (1%) were called active. The shares of active, inactive and inconclusive entries below differ from those in the screen. Calls come from the whole dose curve; as a rule, active = well fitted inhibition curve with a large enough effect; inconclusive = small, poorly fitted or top-dose-only effect, or effect the other way; inactive = no such curve, though single readings can be large or run the other way. Potencies of inconclusive entries are left out as doubtful fits.

Biological target: Neuropeptide S receptor (Homo sapiens) (UniProt Q6W5P4)
Sequence of UniProt Q6W5P4 (Q6W5P4 whole entry, looked up): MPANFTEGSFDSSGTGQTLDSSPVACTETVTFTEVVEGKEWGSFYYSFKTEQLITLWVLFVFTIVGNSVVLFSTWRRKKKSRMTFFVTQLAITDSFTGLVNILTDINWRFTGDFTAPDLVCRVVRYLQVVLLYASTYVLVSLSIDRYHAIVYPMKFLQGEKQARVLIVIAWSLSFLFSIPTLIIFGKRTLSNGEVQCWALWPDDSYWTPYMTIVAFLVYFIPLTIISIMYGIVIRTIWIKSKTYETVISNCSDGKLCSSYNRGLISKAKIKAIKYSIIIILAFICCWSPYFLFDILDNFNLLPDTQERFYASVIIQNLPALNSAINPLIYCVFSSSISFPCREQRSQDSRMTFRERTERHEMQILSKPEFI
Assay: qHTS Assay for Antagonists of the Neuropeptide S Receptor: cAMP Signal Transduction; note: nearly all actives have a fitted effect of over 50% in size
Conditions: CHO-NPSR cells, cAMP TR-FRET, antagonist mode; activity change, negative = inhibition: at 38.3 µM (top of the series) unless noted
% is set by controls: 0 for no effect and ±100 for the full control effect; potency is the fitted concentration of half-maximal effect; tags give direction and shape of the fitted curve.

SMILES | activity change, negative = inhibition | Potency
CCOC(=O)c1c(/N=C/C2C(=O)CCCC2=O)sc2c1CCCC2 | inactive: -27.8% | 
O=C(O)c1ccc(N2C(=O)/C(=C/c3ccc(-c4ccc([N+](=O)[O-])cc4)o3)C=C2c2ccccc2)cc1 |  | active: 10 µM
C/C(CS(=O)(=O)c1ccc(Cl)c(Cl)c1)=N/NC(N)=S | inactive: 1.01% | 
O=C(OC1CCOC1=O)c1cccc(S(=O)(=O)N2CCc3ccccc3C2)c1 (configuration not stated) | inactive: -0.291% | 
O=C(CCc1ccccc1)NC(NC(=S)Nc1ccc(Br)cc1)C(Cl)(Cl)Cl (configuration not stated) | inactive: 2.51% [at 46.1 µM] | 
CCOC(=O)CSc1nc2ccccc2c(=O)n1CC1COc2ccccc2O1 (configuration not stated) |  | inconclusive [inhibitor, partial curve]
CC(=O)c1c(C)[nH]c(C(=O)CSc2nnc(-c3ccco3)n2Cc2ccccc2)c1C |  | inconclusive [inhibitor, single point]
COc1cc(C(O)C(=O)O)ccc1O (configuration not stated) |  | inconclusive [activator, single point]
COc1cccc(-c2nn(-c3ccccc3)cc2C(=O)OCC(=O)Nc2ncc(Cl)cc2Cl)c1 |  | inconclusive [inhibitor, single point]
COCCNC(=S)N/N=C(\C)c1ccc(OC(F)F)cc1 |  | inconclusive [inhibitor, single point]
COc1cccc(C(=O)Nc2c(C(N)=O)oc3ccccc23)c1 |  | inconclusive [inhibitor, single point]
CC1=C(C(=O)OCCOc2ccccc2)C(c2ccc(C)o2)C2=C(CC(C)(C)CC2=O)N1 (configuration not stated) |  | inconclusive [inhibitor, single point]
O=C1N/C(=C/c2cccs2)C(=O)N1Cc1ccccc1F | inactive: 1.74% | 
Cc1cc(C)c(Cn2cnc(-c3ccc([N+](=O)[O-])cc3)c2)c(C)c1 |  | inconclusive [inhibitor, partial curve]
CN(C)/C=N/c1cnc(C(=O)c2ccc(Cl)cc2)n1C |  | inconclusive [inhibitor, single point]
CC(=O)c1cc(Cc2csc(C(C)=O)c2)cs1 |  | inconclusive [inhibitor, partial curve]
CCOC(=O)c1c(N)sc2c(OCC)c(Br)ccc12 |  | inconclusive [activator, single point]
CCOC(=O)C(C)Sc1nc2c(c(-c3cccs3)c1C#N)CCC2 (configuration not stated) |  | inconclusive [inhibitor, single point]
CCOC(=O)c1c(NC(=S)N2CCOCC2)sc2c1CCN(C(=O)OCC)C2 |  | inconclusive [activator, partial curve]
Cc1cccc2c1-c1sc(C(=O)Nc3ccccc3N3CCN(C)CC3)cc1CO2 |  | inconclusive [inhibitor, single point]
O=C1c2ccccc2C(=O)N1CCCCSc1nnnn1-c1ccccc1 |  | inconclusive [inhibitor, partial curve, poor fit]
Cc1nnc(SC(C)C(=O)NCC2CCCO2)n1-c1ccccc1 (configuration not stated) |  | inconclusive [inhibitor, single point]
Fc1ccc2[nH]c3c(N4CCN(C5CCCCC5)CC4)ncnc3c2c1 |  | inconclusive [inhibitor, single point]

SMILES | activity change, negative = inhibition | Potency
CC(C)Cn1nc(NC(=O)c2cccs2)c2cc3ccccc3nc21 |  | inconclusive [activator, partial curve]
O=C(NCc1ccccc1)C1=C[C@@H](c2ccc(Br)cc2)C[C@@H](OCCCCO)O1 |  | inconclusive [activator, single point]
CC1Cc2cc(/C(O)=C3\C(=O)C(=O)N(CCN4CCOCC4)C3c3ccccc3F)ccc2O1 (configuration not stated) |  | inconclusive [activator, partial curve]
O=c1cc(-c2c(F)c(F)c(F)c(F)c2F)oc2ccccc12 |  | inconclusive [inhibitor, partial curve]
COc1cccc(CNCc2ccc(SC)cc2)c1OC | inactive: -6.04% [at 46.1 µM] | 
CCc1nn(-c2ccccc2)c2c1-c1cc(OC)c(OC)cc1C1(N2)C(=O)Nc2ccccc21 (configuration not stated) |  | inconclusive [inhibitor, single point]
CCCCCCNC(=O)CC(c1ccccc1)c1cc(Br)ccc1O (configuration not stated) |  | inconclusive [inhibitor, single point]
Oc1ccc(-c2nc3c4c(ncn3n2)-c2ccccc2CC42CCCC2)cc1 | inactive: -30.9% | 
CC(=O)/C(=N/Nc1cccc(Cl)c1)N1CCOCC1 |  | inconclusive [activator, single point]
COCCCn1c(SCC(=O)c2ccccc2)nc2ccccc2c1=O | inactive: -41.7% | 
CC1CC(C)(C)N2C(=O)C3(Nc4ccccc4S3)c3cccc1c32 (configuration not stated) |  | inconclusive [inhibitor, single point]
CC1(C)CC(=O)C2=C(C1)C(c1cn(-c3ccccc3)nc1-c1ccccc1)C(C#N)=C(N)O2 (configuration not stated) |  | inconclusive [inhibitor, single point]
Cc1nc2c(C(=O)NCc3cccs3)cnn2c(C)c1Cc1ccc(F)cc1 |  | inconclusive [inhibitor, single point]
O/C(=C\c1nc2ccccc2nc1/C=C(\O)c1ccccc1)c1ccccc1 | inactive: -58.4% | 
CN(C)c1ccc(-n2cccc2/C=C/[N+](=O)[O-])cc1 |  | active: 7.94 µM
COC(CN(C(=O)CCl)C(C(=O)NC1CCCCC1)c1ccccc1C)OC (configuration not stated) | inactive: 12.9% | 
O=C(CNCCC1=CCCCC1)Nc1ccccc1N1CCCCCC1 |  | inconclusive [inhibitor, single point]
Cc1ccc2c(c1)C1CN(C)CCC1N2S(=O)(=O)c1ccc(Oc2ccc([N+](=O)[O-])cc2)cc1 (configuration not stated) |  | inconclusive [inhibitor, single point]
Cc1ccc(C(=O)/C=C\C(=O)c2ccc(C)cc2)cc1 |  | inconclusive [inhibitor, single point]
COc1ccccc1NC(=O)CSc1nnc(Cc2cccn2C)n1-c1ccc(F)cc1 |  | inconclusive [inhibitor, single point]
CCCCOC(=O)CSc1nc(N)c(C#N)c(-c2ccc(OCC)cc2)c1C#N |  | inconclusive [inhibitor, single point]
Cc1ccc(SCc2nc3ccccc3n2CC(=O)Nc2ccccc2)cc1 |  | inconclusive [inhibitor, single point]
CCCN1CCN(C(=S)Nc2sc(CC)cc2C(=O)OC)CC1 | inactive: 44.6% | 

SMILES | activity change, negative = inhibition | Potency
CCCCN(C)C(=O)c1nc2ccccn2c1CN1CCN(c2ccccn2)CC1 | inactive: -3.11% | 
Cc1cccc(NC(=S)N(CCN(C)C)Cc2cc3cccc(C)c3[nH]c2=O)c1 | inactive: -9.93% [at 46.1 µM] | 
Cc1ccc(Oc2ncc(-c3ccc(Cl)cc3)cn2)cc1 |  | inconclusive [inhibitor, full curve, poor fit]
O=C(O)c1ccccc1-c1nc2cc(Cl)ccc2c(=O)n1O | inactive: 0.528% | 
CC(/C=C1\SC(=O)N(CC(=O)Nc2cccc(O)c2)C1=O)=C\c1ccccc1 |  | inconclusive [inhibitor, single point]
Cc1ccc(-c2csc3ncnc(N4CCN(C(=O)c5ccccc5)CC4)c23)cc1 |  | inconclusive [inhibitor, partial curve, poor fit]
Cc1ccc(CN2C(=O)C(C)(C)Oc3ccc(C(=O)N4CCCCC4)cc32)cc1 |  | inconclusive [inhibitor, partial curve, poor fit]
Cc1cccc(-n2nc3c(c2NC(=O)c2ccc(Br)o2)CSC3)c1C |  | inconclusive [inhibitor, partial curve, poor fit]
CCOc1ccc(S(=O)(=O)N2CCCCCC2)cc1 |  | inconclusive [inhibitor, partial curve, poor fit]
COc1ccc2c(Cl)c(C(=O)N/N=C/c3ccc4c(c3)OCO4)sc2c1 |  | inconclusive [inhibitor, single point]
CCC(C(=O)Nc1nccs1)(C(F)(F)F)C(F)(F)F |  | inconclusive [inhibitor, single point]
Cc1ccc2oc3nc(C)c(C(=O)Nc4cccc(C(F)(F)F)c4)cc3c(=O)c2c1 |  | inconclusive [inhibitor, single point]
C=CCSc1nnc(-c2cc3c(-c4ccccc4)nn(C)c3s2)n1C |  | inconclusive [inhibitor, partial curve]
CCCCn1c(N(CCOC(C)=O)C(C)=O)nc2ccccc21 |  | inconclusive [inhibitor, partial curve]
CN(CCCC[C@H](CNCc1ccc(-c2ccccc2)cc1)N1C[C@H](c2ccccc2)N(CCc2ccc(Cl)c(Cl)c2)C(=O)C1=O)Cc1ccc(-c2ccccc2)cc1 |  | active: 10 µM
Cc1ccc(C(=O)c2coc3ccc(O)c(Cl)c23)cc1 | inactive: -18.3% [at 46.1 µM] | 
COc1cc2c(cc1OC)C(C)N(C(=O)c1cc3ccccc3o1)CC2 (configuration not stated) |  | inconclusive [inhibitor, single point]
O=C(CC(O)(C(F)(F)F)C(F)(F)F)Nc1ccc(Cl)c(Cl)c1 |  | active: 6.31 µM
CCCOC(=O)c1c(-c2ccccc2)nc(CC)c(C(=O)SCC)c1CCC |  | inconclusive [inhibitor, single point]
COc1cc(NC(=O)Cc2cccs2)ccc1-n1cnnn1 |  | inconclusive [inhibitor, single point]
CC(C)c1nc(CN(C)C(=O)N[C@H](C(=O)N[C@@H](Cc2ccccc2)C[C@H](O)[C@H](Cc2ccccc2)NC(=O)OCc2cncs2)C(C)C)cs1 |  | active: 12.6 µM
